Assay results: the antibiotic and cytotoxicity screens of Wong et al. (2023)
The list shows a part of the results.

Key:
[1] = test system: HSkMC (human skeletal muscle cells); assay: cytotoxicity call (relative viability < 0.9); conditions: 10 µM
[2] = test system: HepG2; assay: cytotoxicity call (relative viability < 0.9); conditions: 10 µM
[3] = test system: S. aureus RN4220; assay: growth inhibition call (relative growth <= 0.2); conditions: 50 µM

Row | Structure (SMILES) | cytotoxicity call [1] | cytotoxicity call [2] | growth inhibition call [3]
1 | C[C@@H]1CN([C@H](C)CO)C(=O)c2cccc(NS(=O)(=O)c3ccc(F)cc3)c2O[C@@H]1CN(C)CC1CC1 | inactive | inactive | inactive
2 | CN(C)Cc1cn(CC[C@@H]2CC[C@H](NS(=O)(=O)c3ccccc3)[C@@H](CO)O2)nn1 | inactive | inactive | inactive
3 | CC(C)NC(=O)N(C)C[C@@H]1OCCCC[C@H](C)Oc2ccc(NS(=O)(=O)c3cn(C)cn3)cc2C(=O)N([C@@H](C)CO)C[C@@H]1C | inactive | inactive | inactive
4 | COc1ccc(S(=O)(=O)Nc2ccc3c(c2)CC(=O)N([C@@H](C)CO)C[C@H](C)[C@H](CN(C)Cc2ccncc2)O3)cc1 | inactive | inactive | inactive
5 | C[C@@H]1CN([C@H](C)CO)C(=O)c2ccccc2-c2ccccc2CO[C@@H]1CN(C)S(=O)(=O)c1ccc(C(F)(F)F)cc1 | inactive | inactive | inactive
6 | COc1ccc(S(=O)(=O)N(C)C[C@@H]2Oc3ccc(NC(=O)c4ccncc4)cc3C(=O)N([C@H](C)CO)C[C@H]2C)cc1 | inactive | inactive | inactive
7 | COc1ccc(S(=O)(=O)Nc2ccc3c(c2)C(=O)N([C@H](C)CO)C[C@@H](C)[C@H](CN(C)C(=O)Nc2c(C)noc2C)OCCCC[C@@H](C)O3)cc1 | inactive | inactive | inactive
8 | CC(C)(C)c1ccc(OC[C@@H](O)CN)cc1 | inactive | inactive | active
9 | C[C@@H]1CN([C@@H](C)CO)C(=O)c2cccc(NC(=O)c3ccc(-c4nccs4)cc3)c2O[C@H]1CN(C)S(=O)(=O)c1cn(C)cn1 | inactive | inactive | inactive
